The full ranking holds about 33,000 sequences; the median of “E-score (-0.5 to 0.5)” is about -0.036, and the highest 2% start at about 0.37. The list shows a part of the results.
biological target: T1, Yer064c (UniProt P40041); assay: PBM E-score (8-mer binding enrichment) (E-score (-0.5 to 0.5)); higher = stronger / more preferred TF binding; most listed sequences are background and not binding sites; details: protein concentration: 200 nM; construct: GST-full length
T1 sequence: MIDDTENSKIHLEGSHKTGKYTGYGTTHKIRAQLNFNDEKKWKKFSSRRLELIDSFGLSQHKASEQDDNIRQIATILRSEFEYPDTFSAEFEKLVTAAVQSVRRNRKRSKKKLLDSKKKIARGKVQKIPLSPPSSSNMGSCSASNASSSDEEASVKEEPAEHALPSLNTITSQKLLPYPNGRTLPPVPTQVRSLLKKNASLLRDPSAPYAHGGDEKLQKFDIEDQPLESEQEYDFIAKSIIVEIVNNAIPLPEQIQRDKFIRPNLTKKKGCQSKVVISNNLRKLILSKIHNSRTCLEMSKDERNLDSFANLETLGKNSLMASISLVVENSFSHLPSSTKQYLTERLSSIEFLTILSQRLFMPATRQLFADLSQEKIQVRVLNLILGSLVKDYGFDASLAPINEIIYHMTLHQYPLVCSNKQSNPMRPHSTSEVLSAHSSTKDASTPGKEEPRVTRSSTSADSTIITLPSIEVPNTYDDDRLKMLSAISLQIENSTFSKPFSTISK
Summary of the method: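 Universal all-10-mer Agilent arrays, double-stranded by primer extension on fresh or once-stripped slides, were probed with about 100-200 nM GST-tagged yeast transcription factors made by PURExpress. Fluorescent anti-GST detected bound protein, and masliner normalised the scans. E-scores from the Universal PBM Analysis Suite were given to each ungapped eight-base word pooled with its reverse complement.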

| Sequence | PBM E-score |
| --- | --- |
| ATTTGGTC | -0.0536 |
| ACGCATCC | -0.25 |
| CAGCGTGG | -0.0592 |
| CCTTTTGA | 0.111 |
| GCGTACAA | -0.0611 |
| CACGGCTC | 0.036 |
| ACTATGCG | -0.00447 |
| AGCATGAA | 0.0913 |
| ATGACCTC | 0.0843 |
| AATGGTCT | 0.014 |
| CTCGCATC | -0.0808 |
| GGGCAAGA | -0.0907 |
| ACTCAGCG | 0.269 |
| GATTAGAA | 0.157 |
| CTATGTTA | 0.0174 |
| CTTCAGAC | 0.0391 |
| CATGTACA | -0.0824 |
| CCGTTTAC | -0.0907 |
| AACTGCGC | -0.165 |
| AGGGGAAA | -0.177 |
| AATTGGCG | -0.156 |
| CCGTGACG | -0.0138 |
| CAACGTCC | -0.367 |
| AAGATTTG | -0.00676 |
| GTAGCCAC | 0.147 |

| Sequence | PBM E-score |
| --- | --- |
| GATGATGA | 0.256 |
| ATTACTCC | 0.117 |
| AAGATTGT | 0.0577 |
| CAACTAGA | -0.014 |
| AAGATATC | 0.181 |
| GAGTAGGA | 0.0914 |
| CTATTTGC | -0.14 |
| CCTCGTTA | -0.0212 |
| CTTATATA | 0.0765 |
| CGCACTTC | -0.172 |
| AAATTACA | 0.0217 |
| GTCAAATA | 0.248 |
| GCGGCTTA | -0.0746 |
| ACATCTTC | -0.0459 |
| AAGAGGCT | -0.00252 |
| GGTCGGCA | -0.0818 |
| TCCCTAGA | 0.0526 |
| GATCGCGC | -0.115 |
| CGTTCATA | 0.0128 |
| CAACCTGA | 0.0275 |
| CATGCCGC | -0.0993 |
| CACGATAA | -0.00322 |
| GAGTTTGA | 0.243 |
| ACCGTTAA | -0.00419 |
| CATATACG | 0.0223 |

| Sequence | PBM E-score |
| --- | --- |
| ACCTGGCC | -0.19 |
| ACGGAAAC | -0.0437 |
| GGAGCTCC | -0.293 |
| CCTGGGCG | -0.146 |
| AACAAGGA | -0.053 |
| CGAGTGCC | -0.179 |
| ATTTATCG | -0.0143 |
| CCTACCAG | -0.195 |
| GCATACTA | -0.136 |
| CCTAGCTA | 0.0333 |
| CACATTTA | 0.0214 |
| CAGAAAGA | -0.0113 |
| CCGGGTCA | -0.207 |
| TGAAATCA | 0.346 |
| ACTTGAAA | -0.0416 |
| CCCATTCA | -0.016 |
| ATACAACC | -0.181 |
| ACCGATGA | 0.113 |
| CGTTTGGC | 0.0755 |
| CACGTAGA | -0.122 |
| AGGTTGTG | -0.131 |
| ATGGCCGC | -0.348 |
| CGACTAAC | 0.43 |
| GAACCCCA | -0.191 |
| CCGATCTC | -0.138 |

| Sequence | PBM E-score |
| --- | --- |
| CGGTACAG | -0.12 |
| AGTGAATC | 0.362 |
| CGGTTAAG | 0.0842 |
| AAGGACCT | -0.114 |
| CACATCCG | 0.0665 |
| GAATCCCC | -0.113 |
| GCAAGAGC | -0.106 |
| CGATGACG | -0.172 |
| ACTCAGTC | 0.411 |
| GCCAGTCA | 0.349 |
| AGCATAAT | -0.0978 |
| GCCCTCTA | -0.0486 |
| ACGCTCAG | 0.121 |
| GCAGGGCA | -0.179 |
| CAGTTACA | 0.00457 |
| AAAACATG | 0.067 |
| GCGATTCA | 0.342 |
| AGCTGATC | -0.0353 |
| CTCTCGAC | -0.0566 |
| AGGGACCG | -0.135 |
| AGATATCG | -0.0552 |
| AGTAGTAA | 0.156 |
| CGACGGGA | -0.088 |
| CACTGTGA | 0.114 |
| CTCTTGAA | 0.053 |

| Sequence | PBM E-score |
| --- | --- |
| AATTAGAC | 0.182 |
| ATCCGGCA | -0.029 |
| AGGAGCGA | 0.0248 |
| ATTGGTCA | 0.0959 |
| ATGACTAG | 0.48 |
| TACGCAAA | 0.0264 |
| ATAGAACG | -0.071 |
| ATCATCGA | 0.31 |
| AGTCGAGA | 0.283 |
| TAGTGGCA | -0.118 |
| AAAGGCAG | 0.0685 |
| TCAACGGA | 0.124 |
| CAACGATC | 0.0269 |
| TGAGCCAA | 0.0764 |
| GACACACC | 0.0688 |
| CTATGCAC | -0.0629 |
| AAGAATTG | 0.0411 |
| GATGCGCC | -0.231 |
| CAACTGGA | -0.163 |
| TAGCCATA | 0.28 |
| ATGGGAGC | -0.227 |
| ACGCTAGC | -0.195 |
| AGAATTAC | -0.0089 |
| CCAGACCA | -0.0693 |
| CTCACACA | 0.141 |

| Sequence | PBM E-score |
| --- | --- |
| GAATGTCA | 0.0928 |
| GCTAGAAA | -0.0238 |
| AATGTGTC | 0.153 |
| CCATCCCA | 0.0189 |
| TGACACAA | 0.0204 |
| CCCTTAGA | -0.0762 |
| CGTTCTCA | -0.19 |
| GGTTCGAC | 0.108 |
| CAACCATC | -0.0441 |
| CAGAGAGC | -0.116 |
| AACGGGCC | -0.291 |
| ACTACGCA | 0.082 |
| AGTGCATA | -0.135 |
| ATCTCCCC | -0.0761 |
| ACAAATTA | 0.0974 |
| ATGGGTCA | 0.282 |
| AACGCGGG | -0.318 |
| AATGAAAC | 0.153 |
| CACCGAGG | -0.271 |
| GATCAAGA | 0.139 |
| CATCAGCC | -0.0354 |
| ACCCTGGG | 0.012 |
| AAACTCGG | 0.122 |
| ACCTCCTG | -0.0757 |
| CCAGCCAG | -0.2 |

| Sequence | PBM E-score |
| --- | --- |
| AGATATTA | -0.0628 |
| GCGATCCA | -0.145 |
| AGACGCCA | -0.212 |
| TACCTTCA | -0.0946 |
| CGACGCCC | -0.32 |
| CCGCTTAA | 0.0255 |
| ACCTGGGG | -0.0698 |
| GGACTGGA | -0.0268 |
| AGGCTATA | -0.025 |
| CATGATCA | 0.29 |
| TAAGAGTA | 0.146 |
| CTGCATTA | 0.00646 |
| CCAGAGGC | -0.335 |
| AAGTGTCT | 0.11 |
| ATTTACAG | 0.126 |
| AAAGAGTC | 0.437 |
| GCACCGCA | -0.298 |
| ACAGATTC | 0.126 |
| GTACATAA | -0.0115 |
| TGTCGACA | -0.137 |
| AGGTGAAG | -0.0576 |
| AAGGAATT | -0.184 |

Source: the supplement of paper PMC3334620
